Reference: US8889672B2, “Compounds, formulations, and methods of protein kinase C inhibition” (The Regents of The University of Michigan, priority 2011, dated 2014)

System: retinal vascular permeability
Experiment: In vivo permeability assay (retinal Evan's blue accumulation after intra-vitreal VEGF)
Conditions: estimated vitreous concentration 25 μM, with 50 ng VEGF

SMILES: CC(C)OC(=O)c1c(-c2ccc(Cl)c(Cl)c2)csc1N [PKCζl-diCl, isopropyl 2-amino-4-(3,4-dichlorophenyl)thiophene-3-carboxylate]
- VEGF-induced accumulation of Evan's blue in the retina: prevented this effect
